No constants are given. Whether binding was seen depends on the method and setting. In cells and extracts the contact can be indirect. Some binding calls cover weakened binding; strength is not graded here. Sequences can lack the tags named with a protein.
Legend:
Experiment in all cases: pull-down; GST-TIP30 fragments of different length on glutathione agarose beads, Myc-tagged binding partners, 2 h at 4°C, washed with PBS, Western blot; no purification of the Myc-tagged partners is described; only the target purified
[1] = molecular target: T1, GST-TIP30 fragment, first 50 amino acids (rat) (UniProt B0BNF8)
T1 sequence: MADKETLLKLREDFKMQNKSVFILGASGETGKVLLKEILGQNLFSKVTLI

Protein sequences, listed by entry. Tags and fused reporters are not part of them.
UniProt P62630: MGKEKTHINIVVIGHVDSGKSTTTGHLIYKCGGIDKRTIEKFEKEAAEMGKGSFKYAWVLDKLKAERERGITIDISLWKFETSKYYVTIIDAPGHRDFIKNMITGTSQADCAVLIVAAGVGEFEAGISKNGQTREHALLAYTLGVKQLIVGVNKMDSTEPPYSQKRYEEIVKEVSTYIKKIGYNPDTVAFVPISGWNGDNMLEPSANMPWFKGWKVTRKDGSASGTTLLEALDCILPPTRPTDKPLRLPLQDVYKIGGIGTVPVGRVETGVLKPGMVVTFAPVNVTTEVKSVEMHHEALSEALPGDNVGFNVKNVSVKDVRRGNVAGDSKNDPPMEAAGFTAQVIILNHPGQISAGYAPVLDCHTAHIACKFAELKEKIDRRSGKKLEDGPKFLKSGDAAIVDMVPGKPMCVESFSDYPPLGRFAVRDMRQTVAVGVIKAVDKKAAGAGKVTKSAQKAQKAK
UniProt P13383: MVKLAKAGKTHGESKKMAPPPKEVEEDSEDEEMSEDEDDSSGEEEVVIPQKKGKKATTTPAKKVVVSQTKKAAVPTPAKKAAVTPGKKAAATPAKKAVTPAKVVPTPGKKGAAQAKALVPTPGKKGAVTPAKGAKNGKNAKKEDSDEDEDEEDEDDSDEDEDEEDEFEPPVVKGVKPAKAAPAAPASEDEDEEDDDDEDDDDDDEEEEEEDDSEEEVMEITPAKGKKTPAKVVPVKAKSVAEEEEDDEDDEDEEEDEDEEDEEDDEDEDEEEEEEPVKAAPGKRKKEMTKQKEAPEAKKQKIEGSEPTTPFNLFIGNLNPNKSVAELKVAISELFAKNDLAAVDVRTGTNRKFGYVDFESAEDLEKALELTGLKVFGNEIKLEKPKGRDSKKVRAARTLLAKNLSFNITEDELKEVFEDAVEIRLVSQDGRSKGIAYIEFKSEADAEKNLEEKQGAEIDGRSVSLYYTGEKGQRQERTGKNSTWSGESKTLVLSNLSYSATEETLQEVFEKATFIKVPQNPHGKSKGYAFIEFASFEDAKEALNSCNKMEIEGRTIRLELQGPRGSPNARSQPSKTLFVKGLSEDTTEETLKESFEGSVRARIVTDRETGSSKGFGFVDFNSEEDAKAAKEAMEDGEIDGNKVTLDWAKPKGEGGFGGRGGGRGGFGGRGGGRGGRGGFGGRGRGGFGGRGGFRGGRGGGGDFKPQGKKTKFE

[2] = molecular target: T2, GST-TIP30 (full-length TIP30, GST fusion, bacterial) (rat) (UniProt B0BNF8)
T2 sequence: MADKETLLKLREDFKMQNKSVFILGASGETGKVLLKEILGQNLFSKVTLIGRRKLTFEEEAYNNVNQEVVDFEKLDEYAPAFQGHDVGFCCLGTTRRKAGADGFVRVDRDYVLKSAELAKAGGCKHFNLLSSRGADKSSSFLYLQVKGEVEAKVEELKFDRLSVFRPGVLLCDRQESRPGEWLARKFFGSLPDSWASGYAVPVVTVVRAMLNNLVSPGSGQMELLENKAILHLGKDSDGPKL

[3] = molecular target: T3, GST-TIP30 fragment, first N-terminal 230 amino acids (rat) (UniProt B0BNF8)
T3 sequence: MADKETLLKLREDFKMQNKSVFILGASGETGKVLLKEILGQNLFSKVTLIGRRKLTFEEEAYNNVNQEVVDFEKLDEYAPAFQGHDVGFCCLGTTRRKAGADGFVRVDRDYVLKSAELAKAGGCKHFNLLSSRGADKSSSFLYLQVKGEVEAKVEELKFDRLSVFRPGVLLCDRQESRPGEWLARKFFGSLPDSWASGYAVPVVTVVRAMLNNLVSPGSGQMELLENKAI

Row | binding [1] | binding [2] | binding [3] | Substance
1 | binds | binds | – | Myc-tagged eEF1A1 used in the GST-TIP30 fragment pull-down (from UniProt P62630 1-462)
2 | – | binds | binds | Myc-tagged nucleolin (from UniProt P13383 1-713)

Reference: paper PMC6783653
